# Measurements published in the supplement of paper PMC8728848.
# The list shows a part of the results.
# Assays:
# Experiment in all cases: glycan array binding signal (z-score within array); higher = stronger binding
# Details in all cases: glycan notation: IUPAC condensed, linker removed
# [1] = target: Gal(b1-4)GlcNAc(b1-3)Gal(b1-4)GlcNAc(b1-2)[Gal(b1-4)GlcNAc(b1-3)Gal(b1-4)GlcNAc(b1-6)]Man(a1-6)[Gal(b1-4)GlcNAc(b1-3)Gal(b1-4)GlcNAc(b1-2)Man(a1-3)]Man(b1-4)GlcNAc(b1-4)GlcNAc
# In short: (§1)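 Glycan array data were curated from 3228 arrays in the Consortium for Functional Glycomics database and kept only where the protein sequence was available. Glycan names were converted to IUPAC-condensed notation, and columns mapping to the same glycan were averaged. The binding signal is a within-array Z-score, averaged across arrays of the same protein sequence at different concentrations or buffers and across linkers. Negative Z-scores can be read as non-binding.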
# [2] = target: Gal(b1-4)GlcNAc(b1-3)Gal(b1-4)GlcNAc(b1-2)[Gal(b1-4)GlcNAc(b1-3)Gal(b1-4)GlcNAc(b1-6)]Man(a1-6)[Gal(b1-4)GlcNAc(b1-3)Gal(b1-4)GlcNAc(b1-2)Man(a1-3)]Man(b1-4)GlcNAc(b1-4)[Fuc(a1-6)]GlcNAc
# In short: as §1
# [3] = target: Gal(b1-4)GlcNAc(b1-3)Gal(b1-4)GlcNAc(b1-3)Gal(b1-4)GlcNAc
# In short: as §1
# [4] = target: Gal(b1-4)GlcNAc(b1-3)Gal(b1-4)GlcNAc(b1-3)Gal(b1-4)GlcNAc(b1-2)Man(a1-3)[Gal(b1-4)GlcNAc(b1-3)Gal(b1-4)GlcNAc(b1-3)Gal(b1-4)GlcNAc(b1-2)Man(a1-6)]Man(b1-4)GlcNAc(b1-4)GlcNAc
# In short: as §1
# [5] = target: Gal(b1-4)GlcNAc(b1-3)Gal(b1-4)GlcNAc(b1-3)Gal(b1-4)GlcNAc(b1-2)Man(a1-3)[Gal(b1-4)GlcNAc(b1-3)Gal(b1-4)GlcNAc(b1-3)Gal(b1-4)GlcNAc(b1-2)Man(a1-6)]Man(b1-4)GlcNAc(b1-4)[Fuc(a1-6)]GlcNAc
# In short: as §1
# [6] = target: Gal(b1-4)GlcNAc(b1-3)Gal(b1-4)GlcNAc(b1-3)Gal(b1-4)GlcNAc(b1-2)[Gal(b1-4)GlcNAc(b1-3)Gal(b1-4)GlcNAc(b1-3)Gal(b1-4)GlcNAc(b1-6)]Man(a1-6)[Gal(b1-4)GlcNAc(b1-3)Gal(b1-4)GlcNAc(b1-3)Gal(b1-4)GlcNAc(b1-2)Man(a1-3)]Man(b1-4)GlcNAc(b1-4)[Fuc(a1-6)]GlcNAc
# In short: as §1
# [7] = target: Gal(b1-4)GlcNAc(b1-3)Gal(b1-4)GlcNAc(b1-3)Gal(b1-4)GlcNAc(b1-3)Gal(b1-4)GlcNAc(b1-2)Man(a1-3)[Gal(b1-4)GlcNAc(b1-3)Gal(b1-4)GlcNAc(b1-3)Gal(b1-4)GlcNAc(b1-3)Gal(b1-4)GlcNAc(b1-2)Man(a1-6)]Man(b1-4)GlcNAc(b1-4)GlcNAc
# In short: as §1
# [8] = target: Gal(b1-4)GlcNAc(b1-3)Gal(b1-4)GlcNAc(b1-3)Gal(b1-4)GlcNAc(b1-3)Gal(b1-4)GlcNAc(b1-2)Man(a1-3)[Gal(b1-4)GlcNAc(b1-3)Gal(b1-4)GlcNAc(b1-3)Gal(b1-4)GlcNAc(b1-3)Gal(b1-4)GlcNAc(b1-2)Man(a1-6)]Man(b1-4)GlcNAc(b1-4)[Fuc(a1-6)]GlcNAc
# In short: as §1
# [9] = target: Gal(b1-4)GlcNAc(b1-3)Gal(b1-4)GlcNAc(b1-3)Gal(b1-4)GlcNAc(b1-3)Gal(b1-4)GlcNAc(b1-2)[Gal(b1-4)GlcNAc(b1-3)Gal(b1-4)GlcNAc(b1-3)Gal(b1-4)GlcNAc(b1-3)Gal(b1-4)GlcNAc(b1-6)]Man(a1-6)[Gal(b1-4)GlcNAc(b1-3)Gal(b1-4)GlcNAc(b1-3)Gal(b1-4)GlcNAc(b1-3)Gal(b1-4)GlcNAc(b1-2)Man(a1-3)]Man(b1-4)GlcNAc(b1-4)[Fuc(a1-6)]GlcNAc
# In short: as §1
# [10] = target: Gal(b1-4)GlcNAc(b1-3)Gal(b1-4)GlcNAc(b1-3)Gal(b1-4)GlcNAc(b1-3)Gal(b1-4)GlcNAc(b1-3)Gal(b1-4)GlcNAc(b1-2)Man(a1-3)[Gal(b1-4)GlcNAc(b1-3)Gal(b1-4)GlcNAc(b1-3)Gal(b1-4)GlcNAc(b1-3)Gal(b1-4)GlcNAc(b1-3)Gal(b1-4)GlcNAc(b1-2)Man(a1-6)]Man(b1-4)GlcNAc(b1-4)GlcNAc
# In short: as §1
# [11] = target: Gal(b1-4)GlcNAc(b1-3)Gal(b1-4)GlcNAc(b1-3)Gal(b1-4)GlcNAc(b1-3)Gal(b1-4)GlcNAc(b1-3)Gal(b1-4)GlcNAc(b1-2)Man(a1-3)[Gal(b1-4)GlcNAc(b1-3)Gal(b1-4)GlcNAc(b1-3)Gal(b1-4)GlcNAc(b1-3)Gal(b1-4)GlcNAc(b1-3)Gal(b1-4)GlcNAc(b1-2)Man(a1-6)]Man(b1-4)GlcNAc(b1-4)[Fuc(a1-6)]GlcNAc
# In short: as §1
# [12] = target: Gal(b1-4)GlcNAc(b1-3)Gal(b1-4)GlcNAc(b1-3)Gal(b1-4)GlcNAc(b1-3)Gal(b1-4)GlcNAc(b1-3)Gal(b1-4)GlcNAc(b1-2)[Gal(b1-4)GlcNAc(b1-3)Gal(b1-4)GlcNAc(b1-3)Gal(b1-4)GlcNAc(b1-3)Gal(b1-4)GlcNAc(b1-3)Gal(b1-4)GlcNAc(b1-6)]Man(a1-6)[Gal(b1-4)GlcNAc(b1-3)Gal(b1-4)GlcNAc(b1-3)Gal(b1-4)GlcNAc(b1-3)Gal(b1-4)GlcNAc(b1-3)Gal(b1-4)GlcNAc(b1-2)Man(a1-3)]Man(b1-4)GlcNAc(b1-4)[Fuc(a1-6)]GlcNAc
# In short: as §1
# [13] = target: Gal(b1-4)GlcNAc(b1-3)Gal(b1-4)GlcNAc(b1-3)Gal(b1-4)GlcNAc(b1-3)Gal(b1-4)GlcNAc(b1-3)Gal(b1-4)GlcNAc(b1-3)Gal(b1-4)GlcNAc(b1-2)Man(a1-3)[Gal(b1-4)GlcNAc(b1-3)Gal(b1-4)GlcNAc(b1-3)Gal(b1-4)GlcNAc(b1-3)Gal(b1-4)GlcNAc(b1-3)Gal(b1-4)GlcNAc(b1-3)Gal(b1-4)GlcNAc(b1-2)Man(a1-6)]Man(b1-4)GlcNAc(b1-4)GlcNAc
# In short: as §1
# [14] = target: Gal(b1-4)GlcNAc(b1-3)Gal(b1-4)GlcNAc(b1-3)GalNAc
# In short: as §1
# [15] = target: Gal(b1-4)GlcNAc(b1-3)Gal(b1-4)GlcNAc(b1-3)[Gal(b1-4)GlcNAc(b1-3)Gal(b1-4)GlcNAc(b1-6)]GalNAc
# In short: as §1
# [16] = target: Gal(b1-4)GlcNAc(b1-3)Gal(b1-4)GlcNAc(b1-6)[Gal(b1-3)]GalNAc
# In short: as §1
# [17] = target: Gal(b1-4)GlcNAc(b1-3)Gal(b1-4)[Fuc(a1-3)]GlcNAc(b1-3)Gal(b1-4)[Fuc(a1-3)]GlcNAc
# In short: as §1
# [18] = target: Gal(b1-4)GlcNAc(b1-3)GalNAc
# In short: as §1
# [19] = target: Gal(b1-4)GlcNAc(b1-3)[Fuc(a1-3)GlcNAc(b1-6)]Gal(b1-4)Glc
# In short: as §1
# [20] = target: Gal(b1-4)GlcNAc(b1-3)[Gal(b1-4)GlcNAc(b1-6)]Gal(b1-4)GlcNAc
# In short: as §1
# [21] = target: Gal(b1-4)GlcNAc(b1-3)[GlcNAc(b1-6)]Gal(b1-4)GlcNAc
# In short: as §1
# [22] = target: Gal(b1-4)GlcNAc(b1-6)Gal(b1-4)GlcNAc
# In short: as §1
# [23] = target: Gal(b1-4)GlcNAc(b1-6)GalNAc
# In short: as §1
# [24] = target: Gal(b1-4)GlcNAc(b1-6)[Gal(b1-3)]GalNAc
# In short: as §1
# [25] = target: Gal(b1-4)GlcNAc(b1-6)[Gal(b1-4)GlcNAc(b1-3)]GalNAc
# In short: as §1
# Gal(b1-4)GlcNAc6P = target: Gal(b1-4)GlcNAc6P
# In short: as §1
# Gal(b1-6)Gal = target: Gal(b1-6)Gal
# In short: as §1
# Gal3S(b1-3)GalNAc = target: Gal3S(b1-3)GalNAc
# In short: as §1
# Gal3S(b1-3)GlcNAc = target: Gal3S(b1-3)GlcNAc
# In short: as §1
# [26] = target: Gal3S(b1-3)[Fuc(a1-4)]GlcNAc
# In short: as §1
# Gal3S(b1-4)Glc = target: Gal3S(b1-4)Glc
# In short: as §1
# Gal3S(b1-4)Glc6S = target: Gal3S(b1-4)Glc6S
# In short: as §1
# Gal3S(b1-4)GlcNAc = target: Gal3S(b1-4)GlcNAc
# In short: as §1
# [27] = target: Gal3S(b1-4)[Fuc(a1-3)]Glc6S
# In short: as §1
# [28] = target: Gal3S(b1-4)[Fuc(a1-3)]GlcNAc
# In short: as §1
# [29] = target: Gal3S(b1-4)[Fuc(a1-3)]GlcNAc6S
# In short: as §1
# Gal3S4S(b1-4)GlcNAc = target: Gal3S4S(b1-4)GlcNAc
# In short: as §1
# Gal3S6S(b1-4)GlcNAc = target: Gal3S6S(b1-4)GlcNAc
# In short: as §1
# Gal3S6S(b1-4)GlcNAc6S = target: Gal3S6S(b1-4)GlcNAc6S
# In short: as §1
# Gal4S(b1-4)GlcNAc = target: Gal4S(b1-4)GlcNAc
# In short: as §1
# Gal4S6S(b1-4)GlcNAc = target: Gal4S6S(b1-4)GlcNAc
# In short: as §1
# Gal6P(b1-4)GlcNAc = target: Gal6P(b1-4)GlcNAc
# In short: as §1
# Gal6S(b1-3)GlcNAc = target: Gal6S(b1-3)GlcNAc
# In short: as §1
# Gal6S(b1-3)GlcNAc6S = target: Gal6S(b1-3)GlcNAc6S
# In short: as §1
# Gal6S(b1-4)Glc = target: Gal6S(b1-4)Glc
# In short: as §1
binder,measurement,setting,value
SBD-G4S3-SBD (protein) MASIPSSASVQLDSYNYDGSTFSGKIYVKNIAYSKKVTVVYADGSDNWNNNGNIIAASFSGPISGSNYEYWTFSASVKGIKEFYIKYEVSGKTYYDNNNSANYQVSTGGGGSGGGGSGGGGSEFASIPSSASVQLDSYNYDGSTFSGKIYVKNIAYSKKVTVVYADGSDNWNNNGNIIAASFSGPISGSNYEYWTFSASVKGIKEFYIKYEVSGKTYYDNNNSANYQVST,glycan array binding signal (z-score),[1],0.685
same,glycan array binding signal (z-score),[2],2.48
same,glycan array binding signal (z-score),[3],-0.123
same,glycan array binding signal (z-score),[4],1.38
same,glycan array binding signal (z-score),[5],3.24
same,glycan array binding signal (z-score),[6],2.17
same,glycan array binding signal (z-score),[7],1.39
same,glycan array binding signal (z-score),[8],7.46
same,glycan array binding signal (z-score),[9],1.54
same,glycan array binding signal (z-score),[10],-0.082
same,glycan array binding signal (z-score),[11],2.81
same,glycan array binding signal (z-score),[12],8.43
same,glycan array binding signal (z-score),[13],2.72
same,glycan array binding signal (z-score),[14],-0.183
same,glycan array binding signal (z-score),[15],-0.31
same,glycan array binding signal (z-score),[16],0.486
same,glycan array binding signal (z-score),[17],-0.376
same,glycan array binding signal (z-score),[18],-0.41
same,glycan array binding signal (z-score),[19],-0.39
same,glycan array binding signal (z-score),[20],0.197
same,glycan array binding signal (z-score),[21],-0.208
same,glycan array binding signal (z-score),[22],-0.397
same,glycan array binding signal (z-score),[23],-0.154
same,glycan array binding signal (z-score),[24],0.053
same,glycan array binding signal (z-score),[25],-0.077
same,glycan array binding signal (z-score),Gal(b1-4)GlcNAc6P,-0.348
same,glycan array binding signal (z-score),Gal(b1-6)Gal,-0.136
same,glycan array binding signal (z-score),Gal3S(b1-3)GalNAc,-0.369
same,glycan array binding signal (z-score),Gal3S(b1-3)GlcNAc,-0.406
same,glycan array binding signal (z-score),[26],-0.382
same,glycan array binding signal (z-score),Gal3S(b1-4)Glc,-0.146
same,glycan array binding signal (z-score),Gal3S(b1-4)Glc6S,-0.284
same,glycan array binding signal (z-score),Gal3S(b1-4)GlcNAc,-0.245
same,glycan array binding signal (z-score),[27],1.17
same,glycan array binding signal (z-score),[28],-0.295
same,glycan array binding signal (z-score),[29],-0.211
same,glycan array binding signal (z-score),Gal3S4S(b1-4)GlcNAc,-0.325
same,glycan array binding signal (z-score),Gal3S6S(b1-4)GlcNAc,-0.338
same,glycan array binding signal (z-score),Gal3S6S(b1-4)GlcNAc6S,-0.352
same,glycan array binding signal (z-score),Gal4S(b1-4)GlcNAc,-0.382
same,glycan array binding signal (z-score),Gal4S6S(b1-4)GlcNAc,-0.35
same,glycan array binding signal (z-score),Gal6P(b1-4)GlcNAc,-0.342
same,glycan array binding signal (z-score),Gal6S(b1-3)GlcNAc,0.167
same,glycan array binding signal (z-score),Gal6S(b1-3)GlcNAc6S,0.168
same,glycan array binding signal (z-score),Gal6S(b1-4)Glc,-0.164
